Data taken from the supplement of paper PMC6609913.
Where a name gives a salt, the structure may show the parent alone. ± gives the standard deviation of the averaged measurements. Whole data set: some 1,300 compounds, median “normalised cell viability” near 1, cut for the lowest 2% near 0.14. The list shows a part of the results.

System: V-C8 (BRCA2-deficient hamster cells)
Assay: normalised cell viability (fraction of plate median); higher = more viable cells (less toxic)
Conditions: 5 µM
Procedure, shortened: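 In two screens, library drugs at 5 μM were given for 3 days (screen 1) or 6 days (screen 2) to hamster V-C8 cells without BRCA2 and V-C8 cells with BRCA2 restored, seeded 24 h earlier in 96-well plates. A resazurin assay gave the cell viability readout, expressed as modified robust per cent of sample against the plate median, with triplicate wells averaged.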

| Structure (SMILES) | normalised cell viability (treatment time: 3 days) | normalised cell viability (treatment time: 6 days) |
| --- | --- | --- |
| C#C[C@]1(O)CC[C@H]2[C@@H]3CCC4=CCCC[C@@H]4[C@H]3CC[C@@]21C [Lynestrenol] | 1.1 ± 0.046 | 1.12 ± 0.063 |
| Nc1c2ccccc2nc2ccccc12 [Aminacrine] | 0.127 ± 0.015 | 0.164 ± 0.015 |
| CN1CCC(=C2c3ccccc3Sc3ccccc32)CC1 [Pimethixene maleate] | 0.972 ± 0.025 | 1.02 ± 0.018 |
| N[C@@H](Cc1cc(I)c(Oc2ccc(O)c(I)c2)c(I)c1)C(=O)O [Liothyronine] | 0.959 ± 0.036 | 0.98 ± 0.023 |
| CN1CCN(C(c2ccccc2)c2ccccc2)CC1 [Cyclizine hydrochloride] | 1.06 ± 0.048 | 1.02 ± 0.012 |
| CN(c1nccc(=O)[nH]1)C1CCN(c2nc3ccccc3n2Cc2ccc(F)cc2)CC1 [Mizolastine] | 1.02 ± 0.068 | 1.11 ± 0.1 |
| O=C(O)c1ccccc1C(=O)Nc1ccc(S(=O)(=O)Nc2nccs2)cc1 [Phthalylsulfathiazole] | 1.04 ± 0.016 | 1.05 ± 0.091 |
| OCCN(CCO)c1nc(N2CCCCC2)c2nc(N(CCO)CCO)nc(N3CCCCC3)c2n1 [Dipyridamole] | 0.991 ± 0.018 | 0.992 ± 0.04 |
| CC(=O)CC(c1ccccc1)c1c(O)c2ccccc2oc1=O (stereo not drawn) [Warfarin] | 0.998 ± 0.043 | 1.05 ± 0.019 |
| CO[C@@H]1[C@@H](O[C@@H]2O[C@H](C)[C@@H](O[C@H]3C[C@@](C)(O)[C@@H](OC(=O)CC(C)C)[C@H](C)O3)[C@H](N(C)C)[C@H]2O)[C@@H](CC=O)C[C@@H](C)[C@@H](O)/C=C/C=C/C[C@@H](C)OC(=O)C[C@H]1OC(C)=O [Josamycin] | 0.566 ± 0.026 | 0.567 ± 0.012 |
| c1ccc2c(CC3=NCCN3)cccc2c1 [Naphazoline hydrochloride] | 1.103 ± 0.0068 | 1.1 ± 0.026 |
| CC(=O)OCC(=O)[C@@]12OC(C)(C)O[C@@H]1C[C@H]1[C@@H]3C[C@H](F)C4=CC(=O)C=C[C@]4(C)[C@@]3(F)[C@@H](O)C[C@@]12C [Fluocinonide] | 1.01 ± 0.015 | 0.9936 ± 0.0099 |
| CCN(CC)CC(=O)Nc1c(C)cccc1C [Lidocaïne hydrochloride] | 1.02 ± 0.032 | 0.999 ± 0.03 |
| CC(=O)NS(=O)(=O)c1ccc(N)cc1 [Sulfacetamide sodic hydrate] | 0.993 ± 0.045 | 1.06 ± 0.073 |
| Cc1cn([C@H]2C=C[C@@H](CO)O2)c(=O)[nH]c1=O [Stavudine] | 1.05 ± 0.077 | 1.23 ± 0.35 |
| C=CC1=C(C(=O)O)N2C(=O)[C@@H](NC(=O)/C(=N\O)c3csc(N)n3)[C@H]2SC1 [Cefdinir] | 1.016 ± 0.0043 | 1.01 ± 0.06 |
| COc1cccc2c1C(=O)c1c(O)c3c(c(O)c1C2=O)C[C@@](O)(C(C)=O)C[C@@H]3O[C@H]1C[C@H](N)[C@H](O)[C@H](C)O1 [Daunorubicin hydrochloride] | 0.141 ± 0.011 | 0.124 ± 0.0055 |
| Cc1c(NC(=O)c2cccnc2)c(=O)n(-c2ccccc2)n1C [Nifenazone] | 0.973 ± 0.068 | 1.02 ± 0.061 |
| CS(=O)(=O)OCCCCOS(C)(=O)=O [Busulfan] | 0.778 ± 0.0098 | 0.845 ± 0.052 |
| CC(C)NC[C@@H](O)COc1ccc(CC(N)=O)cc1 [(R)-(+)-Atenolol] | 0.8746 ± 0.0079 | 0.934 ± 0.083 |
| NS(=O)(=O)c1cc2c(cc1C(F)(F)F)NCNS2(=O)=O [Hydroflumethiazide] | 0.98 ± 0.037 | 0.9712 ± 0.0089 |
| CC[C@@H]1C(=O)OC[C@@H]1Cc1cncn1C [Pilocarpine nitrate] | 1.04 ± 0.032 | 1.07 ± 0.05 |
| CN(CCCCCCCCCCN(C)C(=O)Oc1cccc([N+](C)(C)C)c1)C(=O)Oc1cccc([N+](C)(C)C)c1 [Demecarium bromide] | 0.828 ± 0.022 | 0.812 ± 0.013 |

| Structure (SMILES) | normalised cell viability (treatment time: 3 days) | normalised cell viability (treatment time: 6 days) |
| --- | --- | --- |
| CC(=O)N(CC(O)CO)c1c(I)c(C(=O)NCC(O)CO)c(I)c(C(=O)NCC(O)CO)c1I (stereo not drawn) [Iohexol] | 1.08 ± 0.043 | 1.02 ± 0.026 |
| COC(=O)Nc1nc2cc(Sc3ccccc3)ccc2[nH]1 [Fenbendazole] | 0.187 ± 0.0098 | 0.181 ± 0.013 |
| CN1CCN(CC(=O)N2c3ccccc3C(=O)Nc3cccnc32)CC1 [Pirenzepine dihydrochloride] | 1.07 ± 0.067 | 1.11 ± 0.1 |
| Cn1c(=O)c2c(ncn2CC2OCCO2)n(C)c1=O [Doxofylline] | 1 ± 0.036 | 1.07 ± 0.029 |
| CCOc1nc2cccc(C(=O)O)c2n1Cc1ccc(-c2ccccc2-c2nnn[nH]2)cc1 [Candesartan] | 1.027 ± 0.01 | 1.003 ± 0.0042 |
| C[C@@](Cc1ccc(O)c(O)c1)(NN)C(=O)O [Carbidopa] | 1.12 ± 0.052 | 0.994 ± 0.089 |
| Nc1ncnc2c1ncn2[C@@H]1O[C@H](CO)[C@@H](O)[C@@H]1O [Vidarabine] | 0.921 ± 0.021 | 0.964 ± 0.032 |
| CCC1(c2ccccc2)C(=O)NCNC1=O [Primidone] | 1.01 ± 0.013 | 0.993 ± 0.051 |
| CC(=O)OC[C@H]1O[C@@H]([S-])[C@H](OC(C)=O)[C@@H](OC(C)=O)[C@@H]1OC(C)=O.CCP(CC)CC.[Au+] [Auranofin] | 0.117 ± 0.0046 | 0.141 ± 0.0027 |
| CN(C)CCC(c1ccc(Br)cc1)c1ccccn1 (stereo not drawn) [Brompheniramine maleate] | 0.902 ± 0.041 | 0.961 ± 0.072 |
| O=C1CC[C@@H](C(=O)N2CSC[C@H]2C(=O)O)N1 [Pidotimod] | 1.04 ± 0.062 | 1.07 ± 0.032 |
| Oc1c(Cl)cc(Cl)c2cccnc12 [Chloroxine] | 0.57 ± 0.026 | 0.583 ± 0.014 |
| c1ccc(-c2ccc(C(c3ccccc3)n3ccnc3)cc2)cc1 (stereo not drawn) [Bifonazole] | 0.878 ± 0.032 | 0.74 ± 0.06 |
| CCN(CC)C(=O)c1ccc(O)c(OC)c1 [Ethamivan] | 1.06 ± 0.014 | 1.03 ± 0.066 |
| O=C(c1ccc(F)cc1)C1CCN(CCn2c(=O)[nH]c3ccccc3c2=O)CC1 [Ketanserin tartrate hydrate] | 0.994 ± 0.049 | 0.976 ± 0.08 |
| CCCOc1ccc2[nH]c(NC(=O)OC)nc2c1 [Oxibendazol] | 0.185 ± 0.0067 | 0.183 ± 0.0049 |
| Cc1[nH]cnc1CN1CCc2c(c3ccccc3n2C)C1=O [Alosetron hydrochloride] | 1.1 ± 0.028 | 1.09 ± 0.014 |
| O=C1NCC2(CCN(CCc3ccccc3)CC2)O1 [Fenspiride hydrochloride] | 1.04 ± 0.069 | 1.01 ± 0.018 |
| Clc1ccc2c(c1)CCc1cccnc1C2=C1CCNCC1 [Desloratadine] | 0.412 ± 0.03 | 0.256 ± 0.019 |
| CN(CCCN1c2ccccc2CCc2ccccc21)CC(=O)c1ccc(Cl)cc1 [Lofepramine] | 1.05 ± 0.11 | 1.04 ± 0.075 |
| CN(C)CCOC(c1ccccc1)c1ccccc1.Cn1c(=O)c2[nH]c(Cl)nc2n(C)c1=O [Dimenhydrinate] | 1.08 ± 0.086 | 1.04 ± 0.024 |
| CC(=O)O[C@]1(C(C)=O)CC[C@H]2[C@@H]3C=C(Cl)C4=CC(=O)CC[C@]4(C)[C@H]3CC[C@@]21C [Chlormadinone acetate] | 0.998 ± 0.06 | 0.983 ± 0.043 |
| CCCNC(=O)NS(=O)(=O)c1ccc(Cl)cc1 [Chlorpropamide] | 1.02 ± 0.036 | 1.07 ± 0.072 |

| Structure (SMILES) | normalised cell viability (treatment time: 3 days) | normalised cell viability (treatment time: 6 days) |
| --- | --- | --- |
| CCN(CC)C(C)CN1c2ccccc2Sc2ccccc21 (stereo not drawn) [Ethopropazine hydrochloride] | 1.19 ± 0.26 | 0.923 ± 0.041 |
| Cc1cc(O)c(C(=O)N[C@@H](C(=O)N[C@@H]2C(=O)N3C(C(=O)O)=C(CSc4nnnn4C)CS[C@H]23)c2ccc(O)cc2)cn1 [Cefpiramide] | 1.03 ± 0.074 | 1.09 ± 0.07 |
| CO[C@H]1/C=C/O[C@@]2(C)Oc3c(C)c(O)c4c(O)c(c5c(nc6cc(C)ccn65)c4c3C2=O)NC(=O)/C(C)=C\C=C\[C@H](C)[C@H](O)[C@@H](C)[C@@H](O)[C@@H](C)[C@H](OC(C)=O)[C@@H]1C [Rifaximin] | 0.964 ± 0.023 | 0.928 ± 0.017 |
| O=C1[C@H]2CCCC[C@H]2C(=O)N1CCCCN1CCN(c2nsc3ccccc23)CC1 [Perospirone] | 0.978 ± 0.057 | 0.9647 ± 0.0093 |
| Clc1cccc(Cl)c1NC1=NCCN1 [Clonidine hydrochloride] | 0.956 ± 0.05 | 1 ± 0.069 |
| Nc1nc2c(ncn2COC(CO)CO)c(=O)[nH]1 [Ganciclovir] | 1.06 ± 0.015 | 1 ± 0.052 |
| CC=CC(=O)N(CC)c1ccccc1C [Crotamiton] | 0.866 ± 0.12 | 0.929 ± 0.025 |
| CNCCc1ccccn1 [Betahistine mesylate] | 0.99 ± 0.031 | 1.11 ± 0.052 |
| NCCCCCC(=O)O [Aminocaproic acid] | 0.927 ± 0.023 | 1.07 ± 0.17 |
| CN(C)C(=N)NC(=N)N [Metformin hydrochloride] | 1.03 ± 0.043 | 1.02 ± 0.019 |
| CCOC(=O)/C=C(C)/C=C/C=C(C)/C=C/c1c(C)cc(OC)c(C)c1C [Etretinate] | 1.01 ± 0.027 | 1.1 ± 0.073 |
| NC[C@H]1O[C@H](O[C@H]2[C@H](O)[C@@H](O[C@H]3O[C@H](CO)[C@@H](O)[C@H](N)[C@H]3O)[C@H](N)C[C@@H]2N)[C@H](N)C[C@@H]1O [Tobramycin] | 0.949 ± 0.028 | 1.04 ± 0.026 |
| C=CCOc1ccccc1OCC(O)CNC(C)C (stereo not drawn) [Oxprenolol hydrochloride] | 1.04 ± 0.034 | 1.07 ± 0.036 |
| Cc1c(N)c(=O)n(-c2ccccc2)n1C [Ampyrone] | 1.01 ± 0.12 | 1.06 ± 0.055 |
| CCN(CC)CCOCCOC(=O)C1(c2ccccc2)CCCC1 [Carbetapentane citrate] | 0.163 ± 0.0053 | 0.143 ± 0.011 |
| Cc1cc(C(C)(C)C)cc(C)c1CC1=NCCN1 [Xylometazoline hydrochloride] | 0.945 ± 0.042 | 1.06 ± 0.046 |
| CCN(CC)C(=O)C1(c2ccccc2)CC1CN (stereo not drawn) [Milnacipran hydrochloride] | 0.95 ± 0.089 | 1 ± 0.082 |
| CCN(CCCCOC(=O)c1ccc(OC)c(OC)c1)C(C)Cc1ccc(OC)cc1 (stereo not drawn) [Mebeverine hydrochloride] | 0.997 ± 0.071 | 0.978 ± 0.22 |
| O=P(O)(O)C(O)(Cn1ccnc1)P(=O)(O)O [Zoledronic acid hydrate] | 1.08 ± 0.077 | 1.02 ± 0.031 |
| COc1cc2nc(N3CCN(C(=O)C4COc5ccccc5O4)CC3)nc(N)c2cc1OC (stereo not drawn) [Doxazosin mesylate] | 0.953 ± 0.014 | 0.855 ± 0.12 |
| CCN(CC)C(=O)Nc1ccc(OCC(O)CNC(C)(C)C)c(C(C)=O)c1 (stereo not drawn) [Celiprolol HCl] | 1.13 ± 0.12 | 0.988 ± 0.031 |
| N[C@H]1CONC1=O [(S)-(-)-Cycloserine] | 1.07 ± 0.062 | 0.992 ± 0.019 |
| CCCCC1C(=O)N(c2ccccc2)N(c2ccc(O)cc2)C1=O (stereo not drawn) [Oxyphenbutazone] | 0.941 ± 0.097 | 0.982 ± 0.061 |
